We go through 1 substance from patent US5576208A, “Antisense oligonucleotide inhibition of the RAS gene” (priority 1994, dated 1996).

The procedure of the data set:
Oligonucleotides were incubated in crude HeLa cellular extracts at 37° C. to determine their sensitivity to nuclease degradation as described in Dignam et al., Nucleic Acids Res. 1983, 11, 1475-1489. […] Oligonucleotides with two-, three and four-diester gaps had T 1/2 of approximately 5.5 hours, 3.75 hours, and 3.2 hours, and oligonucleotides with five or ten deoxy linkages had T 1/2 of 1.75 hours and 0.9 hours, respectively.

As for “CsCsAsCsAsCoCoGoAoCoGsGsCsGsCsCsC [compound 4233]”, the “T 1/2” value was determined as 7 h.
